Hit rate of the full screen: of about 48,000 compounds, about 120 (0.25%) were called active. Roughly 4% stayed inconclusive and do not appear here. Calls come from the whole dose curve; as a rule, active = well fitted activation curve with a large enough effect; inconclusive = small, poorly fitted or top-dose-only effect, or another doubt; inactive = no such curve, though single readings can be large or run the other way. This is one part of the list.

The results in this text go back to PubChem BioAssay AID1508624 (National Center for Advancing Translational Sciences (NCATS), 2021).

This assay in a line: Primary qHTS for Identification of Small Molecule Activators of Huntingtin-Antisense Promoter Activity. Note: nearly all actives have a fitted effect of over 55% in size. The settings on record: HEK293 HTT-AS promoter firefly luciferase reporter (activity 0% = vehicle and -100% = no light), 24 h; series mostly up to 57.5 µM; activity change, positive = activation: at the top concentration. The gist of the method:
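Quantitative HTS used concentration series of up to 57.5 uM final on HEK293 luciferase reporter cells, 24 h at 37 degrees C. Readout was Dual-Glo firefly luminescence.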
Consider `CC(=O)c1cccc(-n2c(=O)c3c4c(sc3n(Cc3ccccc3Cl)c2=O)CN(C(C)=O)CC4)c1`, for which the “activity change, positive = activation” value is inactive: -4.36%.

With `CCCOC(=O)c1c(NC(=O)c2nc3ncccn3n2)sc(C(=O)OCC)c1C`, the “activity change, positive = activation” value was inactive: 13.8%.

As to `Cc1ccc(C2CCN(C(=O)c3cnn(-c4ccccc4Cl)c3C3CCN(C(=O)OC(C)(C)C)CC3)C2)cc1` (centres undefined), the “activity change, positive = activation” value is inactive: -42.3%.

On to `COc1cc(OC)c(C2C=C(C(=O)O)Nc3ncnn32)cc1OC` (centres undefined), for which the “activity change, positive = activation” value was inactive: -14.8%.

As to `O=C(Cn1c(-c2cccs2)cc2cc(Cl)ccc21)NCc1ccccc1`, the “activity change, positive = activation” value is inactive: -26.7%.

Turning to `CCCSc1nc(=O)c2c(n1C)NC(=O)CC2c1cccc(F)c1F` (centres undefined), the “activity change, positive = activation” value is inactive: -7.21%.

In the case of `CCc1ccccc1NC(=O)CN(Cc1ccccc1)S(=O)(=O)c1ccc2nc(C)sc2c1`, the “activity change, positive = activation” value is inactive: -15.1%.

`CCOC(=O)c1c(NC(=O)CCCOc2ccc(C(C)(C)C)cc2)sc2c1CCC2`: the “activity change, positive = activation” value was inactive: 2.43%.

As to `COc1ccc(N2CCN(C(=O)Cc3c(C(=O)O)c(C)cn3C)CC2)cc1`, the “activity change, positive = activation” value was inactive: -17.2%.

With `COc1ccc(-n2nc3ccc(NC(=O)COc4ccc(C)c(C)c4)cc3n2)cc1`, the “activity change, positive = activation” value was inactive: -8.76%.

`Cc1cccc(NC(=O)Cn2cc(S(=O)(=O)c3ccc(F)cc3)c(=O)c3cc4c(cc32)OCO4)c1`: the “activity change, positive = activation” value was inactive: -12.5%.

As for `CC(C)Oc1ccc(C(=O)N[C@H](CNC(=O)CN(C)C)Cc2ccc(-c3cn4cccc([C@H](C)O)c4n3)cc2)cc1Cl`, the “activity change, positive = activation” value was inactive: -32.1%.

Take `Cc1ccc(-c2c(C(=O)N3CCN(c4cccc(C)c4C)CC3)oc(=O)c3ccccc23)cc1`: the “activity change, positive = activation” value is inactive: -37.3%.

On to `CC(=O)c1cccc(NC(=O)c2cnn(-c3cccc(C)c3)c2-n2cccc2)c1`, for which the “activity change, positive = activation” value is inactive: -2.29%.

Regarding `CCC(=O)N1CCc2cc(Br)cc(S(=O)(=O)NCCc3ccccc3Cl)c21`, the “activity change, positive = activation” value is inactive: -35.6%.

As to `Cc1ccc(C)c(NC(=O)N2CC=C(c3c[nH]c4ccccc34)CC2)c1`, the “activity change, positive = activation” value was inactive: -12%.

Consider `Cc1cc(C)c(NC(=O)CSc2nc(C)cc(C)c2C#N)c(C)c1`, for which the “activity change, positive = activation” value is inactive: -8.68%.

Turning to `O=C(CN1Cc2ccccc2C1=O)Nc1cc(F)ccc1F`, the “activity change, positive = activation” value was inactive: 2.54%.

Take `Cc1cccc(N(C)C(=O)C(Cc2ccccc2)NS(=O)(=O)c2cccc3nsnc23)c1` (centres undefined): the “activity change, positive = activation” value is inactive: -17.2%.

`COc1ccc(Nc2ccc3cc(S(=O)(=O)N4CCCC4)ccc3n2)cc1Cl`: the “activity change, positive = activation” value is inactive: -31.1%.

As for `COc1ccccc1OCC(=O)N(Cc1ccc(N(C)C)cc1)CC1CCCO1` (centres undefined), the “activity change, positive = activation” value was inactive: -11.3%.

Regarding `Cc1ccc2oc(=O)c3cnn(CC(=O)N(C)c4ccc(F)cc4)c3c2c1`, the “activity change, positive = activation” value was inactive: -5.3%.

For the compound `CC(=O)c1ccc(NC(=O)C2CCN(S(=O)(=O)c3ccc4c(c3)CCCN4C(=O)C3CCC3)CC2)cc1`, the “activity change, positive = activation” value is inactive: 9.37%.

Take `CCOc1ccc(-n2c(SCC(=O)Nc3ccccc3OC)nc3c(oc4ccccc43)c2=O)cc1`: the “activity change, positive = activation” value was inactive: -16.8%.

Regarding `Cc1noc(/C=C/c2ccco2)c1S(=O)(=O)N1CCC(C(=O)Nc2ccc(F)cc2F)CC1`, the “activity change, positive = activation” value was inactive: -22.7%.

For `Cc1ccc(OCC(=O)Nc2ccc3nc(SCc4ccccc4)sc3c2)cc1`, the “activity change, positive = activation” value is inactive: -2.85%.

For `CCCCN(Cc1ccccc1)C(=O)CN(C)S(=O)(=O)c1ccc2c(c1)c(=O)n(C)c(=O)n2C`, the “activity change, positive = activation” value is inactive: -9.06%.

With `O=C(Nc1cc(C(F)(F)F)ccc1Cl)c1cc(S(=O)(=O)NCc2ccccc2)ccc1F`, the “activity change, positive = activation” value is inactive: -28.5%.

As for `CCOC(=O)c1cccc(NC(=O)Cn2c(=O)nc(-c3ccccc3)c3ccccc32)c1`, the “activity change, positive = activation” value is inactive: -11.2%.

In the case of `CCc1cc2c(cc3c(=O)n(CCCC(=O)NCc4ccccc4Cl)nc(CC)n32)s1`, the “activity change, positive = activation” value is inactive: -2.63%.

Regarding `Cc1cccc(OCc2ccc(-c3nc(C#N)c(N4CCC(C(N)=O)CC4)o3)o2)c1`, the “activity change, positive = activation” value is inactive: -1.82%.

On to `COCCCNC(=O)CC(c1cc(OC)c(OC)c(OC)c1)N1Cc2ccccc2C1=O` (centres undefined), for which the “activity change, positive = activation” value was inactive: -7.36%.

As for `COc1ccc(NC(=O)C(Cc2ccccc2)NS(=O)(=O)c2ccc(Br)s2)cc1OC` (centres undefined), the “activity change, positive = activation” value was inactive: -12.1%.

For `COc1ccc(OC)c(CCNC(=O)c2cc3c(-c4ccccc4F)nn(C)c3s2)c1`, the “activity change, positive = activation” value is inactive: -48.6%.

Regarding `O=C(O)COC(=O)Cc1ccccc1Nc1c(Cl)cccc1Cl`, the “activity change, positive = activation” value is inactive: -0.645%.

For the compound `CCOc1cc(C(=O)Nc2ccc3oc(-c4ccc(CC)cc4)nc3c2)cc(OCC)c1OCC`, the “activity change, positive = activation” value was inactive: -40.5%.

`COc1ccccc1CCNC(=O)CCn1c(=O)c2cccn2c2ccc(F)cc21`: the “activity change, positive = activation” value is inactive: -15.5%.

In the case of `Cc1cc(C)cc(NC(=O)CSCn2nnc3c(=O)[nH]c(Cc4ccc(F)cc4)nc32)c1`, the “activity change, positive = activation” value was inactive: 4.27%.

Regarding `COc1ccc(CCNC(=O)CCc2c(C)nc3cc(-c4ccccc4)nn3c2C)cc1OC`, the “activity change, positive = activation” value is inactive: -81.8%.

On to `Cc1ccc(-c2noc(CCC(=O)Nc3ccc(F)cc3Cl)n2)cc1`, for which the “activity change, positive = activation” value is inactive: -8.88%.

As for `Cc1nn(C)c2c1c(-c1ccccc1)cc(=O)n2Cc1ccccc1F`, the “activity change, positive = activation” value is inactive: -13.3%.

As to `Cc1c(Cl)cccc1NC(=O)N1CCN(Cc2cc(=O)n3nc(-c4ccccc4F)sc3n2)CC1`, the “activity change, positive = activation” value is inactive: 0.142%.

As for `NC(=O)CSc1ncc2c(n1)-c1ccccc1N(Cc1ccccc1)S2(=O)=O`, the “activity change, positive = activation” value is inactive: 16.7%.

In the case of `COc1ccc(NS(=O)(=O)c2ccc3c(c2)CCN3C(=O)C2CC2)cc1OC`, the “activity change, positive = activation” value was inactive: -90.7%.

For `Cc1cc(C)c2c(=O)cc(C(=O)NCCc3ccc(S(N)(=O)=O)cc3)oc2c1`, the “activity change, positive = activation” value was inactive: -18.4%.

With `COc1cccc(CNC(=O)Cn2c(=O)c3cccn3c3ccc(F)cc32)c1OC`, the “activity change, positive = activation” value was inactive: -2.27%.

As to `Cc1ccccc1CNC(=O)C(=O)NCC(c1ccco1)S(=O)(=O)c1ccc(F)cc1` (centres undefined), the “activity change, positive = activation” value is inactive: -17.9%.

As to `CCC(C)NC(=O)Cn1ncc2c(C)n(Cc3ccc(F)cc3)c(C)c2c1=O` (centres undefined), the “activity change, positive = activation” value is inactive: -0.544%.

As to `CCc1ccc(CNC(=O)c2nn(-c3ccc(C)c(C)c3)nc2CO)cc1`, the “activity change, positive = activation” value is inactive: -19.4%.

As for `Cc1ccc2c(=O)cc(C(=O)Nc3sc4c(c3C(=O)NCc3ccco3)CCCC4)oc2c1C`, the “activity change, positive = activation” value was inactive: 1.17%.

`Cc1ccc2c(CNCc3cccs3)c(C(=O)O)n(Cc3ccc(F)cc3)c2c1`: the “activity change, positive = activation” value is inactive: -37.3%.

`COC(=O)c1ccc(Cn2c(=O)cc(C)c3c(C)nn(C)c32)cc1`: the “activity change, positive = activation” value was inactive: -37.8%.

Consider `CCOc1ccc(Sc2cc(C(=O)NCc3ccc(F)cc3)c3ccccc3n2)cc1`, for which the “activity change, positive = activation” value is inactive: -37.6%.

In the case of `CC(=O)CSc1nc(-c2ccccc2)[nH]c1S(=O)(=O)c1ccc(C)cc1`, the “activity change, positive = activation” value is inactive: -13.4%.

For `CCn1cc(C(=O)N2CCN(c3ccccc3)CC2)c(=O)c2cc(S(=O)(=O)N(C)C3CCCCC3)ccc21`, the “activity change, positive = activation” value was inactive: 0.867%.

Regarding `CN(C)c1ccc(C(CNC(=O)COc2ccccc2)N2CCOCC2)cc1` (centres undefined), the “activity change, positive = activation” value was inactive: -6.9%.

Consider `Cc1cnc(NC(=O)C2=C(O)c3ccccc3S(=O)(=O)N2C)s1`, for which the activity change, positive = activation entry was “inactive”.

Turning to `O=C(CN1C(=O)CCSc2ccc(S(=O)(=O)N3CCCC3)cc21)Nc1cccc(Cl)c1`, the “activity change, positive = activation” value was inactive: -3.79%.

On to `CCN(CC)S(=O)(=O)c1ccc2c(c1)N(CC(=O)NCc1ccccc1)C(=O)CS2`, for which the “activity change, positive = activation” value was inactive: -16.4%.
